Assay results taken from PubChem BioAssay AID1508623 (National Center for Advancing Translational Sciences (NCATS), 2021).
Hit rate of the full screen: of about 48,000 compounds, about 450 (0.94%) were called active. Another 19% or so got no clear call; they are omitted. Calls follow the shape of the dose curve; as a rule, active = well fitted inhibition curve with a large enough effect; inconclusive = small, poorly fitted or top-dose-only effect; inactive = no such curve, though single readings can be large or run the other way. The list shows a part of the results.

Experiment: Primary qHTS for Identification of Small Molecule Inhibitors of Huntingtin Promoter Activity; also: nearly all actives have a fitted effect of over 50% in size
Conditions: HEK293 HTT promoter firefly luciferase reporter (activity 0% = vehicle and -100% = no light), 24 h; series mostly up to 57.5 µM; activity change, negative = inhibition: at the top concentration
In short: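 HEK293 cells carrying firefly luciferase reporters were seeded at 2,500 per well in Opti-MEM and cultured for 24 h. They were then treated with compounds at up to 57.5 uM final for 24 h at 37 degrees C before Dual-Glo luminescence readout.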

Activity change, negative = inhibition, inactive:
CC1=C(C(=O)N2CCN(c3cccc(C(F)(F)F)c3)CC2)C2(CCCCC2)OC1=O -10.1%
CCOC(=O)c1ccccc1NC(=O)c1cc2c(=O)oc3ccc(C)cc3c2s1 -7.98%
COc1ccccc1CNC(=O)CN1C(=O)CSc2ccc(S(=O)(=O)N3CCCCC3)cc21 -13.5%
CCN(c1ccccc1)c1ncnc2c1cnn2-c1ccc(C)cc1C 16%
Cc1ccc(NC(=O)Cn2cc3c(n2)CCCCC3)cc1 -8.56%
O=C(Nc1ccc(Cl)cc1Cl)c1cc(S(=O)(=O)N2CCc3ccccc32)ccc1F -18.7%
CCOC(=O)c1noc2nc(C)n(CC(=O)Nc3ccccc3F)c(=O)c12 -8.75%
CCOc1ccc(CNC(=O)CSc2nnc(C)c3c(C)n(-c4ccccc4)nc23)cc1 -5.04%
CC(C)CN(CCCNC(=O)CN1C(=O)CSc2ccc(S(=O)(=O)N3CCOCC3)cc21)CC(C)C -14.1%
COc1ccc(S(=O)(=O)n2ccnc2)cc1C(C)(C)C -0.0546%
COc1ccc(OC)c2sc(N3CCN(C(=O)C4CC4)CC3)nc12 0%
CCOc1ccc(NC(=O)CC2C(=O)OCCN2CC)cc1 (stereo unspecified) -7.28%
COc1ccccc1NC(=O)c1cnc(SCC(=O)N2CCCc3ccccc32)n(C)c1=O 3.7%
COc1ccc(N2CCN(C(=O)c3cc4ccc5cccnc5c4[nH]3)CC2)cc1 -3.38%
CSc1ccc(-c2nc3ccc(C)cn3c2Nc2ccccc2C)cc1 5.43%
Cc1cccc(-c2nnn3c2nc(NCCc2ccc(S(N)(=O)=O)cc2)c2cc(Cl)ccc23)c1 -4.88%
CS(=O)(=O)N(CC(=O)NCCc1ccccc1)c1cc(C(F)(F)F)ccc1Cl -9.67%
Cc1cccc(Oc2nc3c(c(=O)n(C)c(=O)n3C)n2C)c1 -23.2% [at 11.5 µM]
O=C(NCC12CC3CC(CC(C3)C1)C2)c1cc2nc(-c3ccccc3)cc(C(F)(F)F)n2n1 -5.99%
CC(NC(=O)c1ccccc1NC(=O)c1nsc2ccccc12)c1ccccc1 (stereo unspecified) 12.9%
CCCCOc1ccc(C(=O)N2CCN(CCc3ccccn3)CC2)cc1 -14.4%
COc1ccc(-c2ccc(=O)n(CC(=O)Nc3ccc(C)cc3C)n2)cc1 -6.98%
COc1ccc(-c2noc(CCC(=O)NCc3ccc(C)cc3)n2)cc1 -18.2%
O=c1n(Cc2cccc(C(F)(F)F)c2)c2ccccc2c2nc(-c3ccccc3)nn12 -9.87%
Cc1ccc(-c2ccc(CCC(=O)O)n2-c2cccc(O)c2)cc1 8.87%
Cc1ccc(CNC(=O)CCCCCn2c(=O)c3sccc3n(CC(=O)N(C)c3ccccc3)c2=O)cc1 -11.6%
CCOC(=O)c1cccc(NC(=O)Cn2ncc3c4ccccc4n(Cc4ccccc4)c3c2=O)c1 -6%
CCc1ccc2oc(C(=O)Nc3cccc(C(F)(F)F)c3)cc(=O)c2c1 -0.103% [at 11.5 µM]
Cc1ccc(NS(=O)(=O)c2ccc3[nH]c(=O)ccc3c2)cc1N(C)C -22.4%
Cc1cccc(Cn2c(=O)n(CCc3ccccc3)c(=O)c3c(C)c(C)sc32)c1 -5.39%
Cc1ccc(NC(=O)c2cc(C)nc3c2c(C)nn3-c2cccc(Cl)c2C)c(C)c1 -11.9%
CCn1cc(C(=O)NCc2ccccc2OC)c(=O)c2cc(S(=O)(=O)N3CCCCC3)ccc21 -3.34%
CCOC(=O)[C@@H](N)Cc1ccc(-c2cc(O[C@H](c3ccc(Cl)cc3-n3ccc(C)n3)C(F)(F)F)nc(N)n2)cc1 -7.25%
COc1ccccc1CN1COc2ccc3c(oc(=O)c4ccccc43)c2C1 -0.41%
CCn1c(=O)cc(SCC(=O)NCCc2ccc(Cl)cc2)c2ccccc21 -17%
CCOC(=O)C1CCC(CN(Cc2ccc(Cl)cc2)S(=O)(=O)c2ccc(F)c(C(=O)Nc3cccc(F)c3)c2)CC1 (stereo unspecified) 8.38%
COc1ccccc1Nc1cc(C(=O)NC2CCCC2)c2ccccc2n1 -26.2%
COc1ccc(/C=C/C(=O)Nc2sc3c(c2C(N)=O)CCCC3)cc1 20.8%
COc1cccc2sc(=NC(=O)c3ccc(S(=O)(=O)N4CCCCC4)cc3)n(C)c12 -5.36%
CCOC(=O)c1cnc(NCc2ccccc2OC)c2ccccc12 -24.4%
COc1ccc(S(=O)(=O)N2CCCCC2)cc1C(=O)Nc1cccc(C(F)(F)F)c1 -12.1%
CCn1c(=O)c2cc(C(=O)NCCc3cc(OC)ccc3OC)sc2c2ccccc21 -7.19%
CCCCN(CC)CCNC(=O)c1cc2c(=O)oc3ccc(C)cc3c2s1 -1.71%
Cc1ccc(-n2c(C)nc3c(cnn3-c3ccccc3C)c2=O)cc1F -11.1%
CCc1ccc2oc(-c3ccc(NC(=O)c4ccc(OC)c(Br)c4)cc3)nc2c1 45.1%
O=C(NCc1cccc(F)c1)c1ccc(-n2cnc3cccnc32)cc1 -3.22%
Cn1cc(S(=O)(=O)c2ccccc2)c(=O)c2cc(F)c(N3CCN(c4ccccc4)CC3)cc21 -16.7%
Cc1cccc(-n2c(-c3ccccc3)cn3c4c(=O)[nH]c(=O)n(C)c4nc23)c1 -2.34%
Cc1ccc(-c2cc(C(F)(F)F)n3nc(C(=O)Nc4ccc(Cl)c(C(F)(F)F)c4)cc3n2)cc1 -2.82%
Cc1cc(C)c(Cn2c3ccccc3c3cnn(CC(=O)N4CCCCCC4)c(=O)c32)c(C)c1 -13.4%
Cc1cccc(C)c1OCC(=O)Nc1nc(-c2ccc(Br)cc2)ns1 -2.56%
O=C(Cn1c(=O)n(-c2cccc(Cl)c2)c(=O)c2sc3ccccc3c21)N1CCCC1 -14.3%
CCOc1ccc(C(=O)Nc2c(C(=O)Nc3ccccc3F)oc3ccccc23)cc1OCC -16.7%
O=S1(=O)c2ccccc2N(Cc2ccccc2)c2ccccc21 -2.87%
CC(=O)c1ccc(NC(=O)c2c3c(nc4ccccc24)C(=O)N(C2CCCCC2)C3)cc1 -21.9%
CCN(CC)CCCNC(=O)C1CCN(S(=O)(=O)CC)CC1 -16.6%
COC(=O)c1cc(C)nc2c1c(=O)nc(SCc1ccccc1F)n2C1CC1 -24.3%
O=C(Nc1cccc(Br)c1)N1CCC(CN2CCCCC2)CC1 3.69%
Cc1ccc(NC(=O)CSc2nc3ncccc3[nH]2)cc1F 5.57%
COc1ccc(OCCn2cc(C(=O)C3CCCCC3)c3ccccc32)cc1 -27.6%
COc1cccc(N2CCN(C(=O)c3cnn(C(C)(C)C)c3C3CCN(C(=O)OC(C)(C)C)CC3)CC2)c1 -19.2%
